From PubChem BioAssay AID360 (National Center for Advancing Translational Sciences (NCATS), 2006)
In all, about 48,000 compounds went through this assay and about 550 (1.1%) were called active. Another 4% or so got no clear call; they are omitted. No stated cut-off is given here; in the data, active means potency below about 15 µM; inconclusive means mostly about 16 µM to 33 µM; inactive means weaker than that. This is one part of the list.

molecular target: Lysosomal acid glucosylceramidase (Homo sapiens) (UniProt P04062); test: Glucocerebrosidase; conditions: purified enzyme, resorufin glucoside fluorescence (screen aimed at inhibitors), 20 min;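 further: the screen sought inhibitors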
Outline: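 Wild-type enzyme at 0.2 nM final in 50mM citric acid/KH2PO4, 10mM sodium taurocholate, 0.01% tween-20, pH 5.9, with resorufin beta-D-glucopyranoside at 30 uM final. Compounds titrated, 20 min at RT, red fluorescence read; AC50 from titration.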
Potency means the concentration at half of the fitted maximal effect.

Sequence of UniProt P04062 (P04062 whole entry, looked up): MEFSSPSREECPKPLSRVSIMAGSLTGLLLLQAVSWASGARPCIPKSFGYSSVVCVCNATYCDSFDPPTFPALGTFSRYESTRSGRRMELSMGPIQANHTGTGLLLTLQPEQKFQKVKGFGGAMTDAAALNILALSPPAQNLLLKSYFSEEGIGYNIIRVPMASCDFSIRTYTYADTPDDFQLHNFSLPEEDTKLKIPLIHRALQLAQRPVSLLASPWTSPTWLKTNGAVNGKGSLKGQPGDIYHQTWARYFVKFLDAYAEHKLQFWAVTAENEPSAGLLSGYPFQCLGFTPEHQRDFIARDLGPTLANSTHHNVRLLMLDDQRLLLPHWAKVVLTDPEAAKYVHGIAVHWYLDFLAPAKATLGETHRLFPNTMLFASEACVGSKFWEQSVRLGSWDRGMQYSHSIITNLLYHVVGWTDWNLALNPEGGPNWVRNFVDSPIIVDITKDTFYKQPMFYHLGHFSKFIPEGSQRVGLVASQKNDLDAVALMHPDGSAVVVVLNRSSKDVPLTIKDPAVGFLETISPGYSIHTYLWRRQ

Potency, inactive:
CCOC(=O)Cn1c(=O)c2c(nc(Br)n2Cc2ccccc2)n(C)c1=O > 76.9 µM
CCOC(=O)N1CCC(NC(=O)C(C)n2c3ccccc3c3cnn(C)c(=O)c32)CC1 (configuration not stated) > 76.9 µM
Cc1ccccc1C(=O)N(C)Cc1ccccc1 > 76.9 µM
O=C(CCC(=O)c1cccs1)NCc1ccccc1 > 76.9 µM
COc1ccc(CNCCNC(=O)c2nonc2N)cc1OC > 76.9 µM
Cc1ccc2c(c1)cc(CN(Cc1ccco1)C(=O)COc1ccccc1)c1nnnn12 > 76.9 µM
CCOC(=O)N1CCN(S(=O)(=O)c2cc(C)c(C)cc2C)CC1 > 76.9 µM
O=C(CCn1c(=O)oc2ccccc21)n1c(=O)oc2ccccc21 > 76.9 µM
Cc1ccc2c(c1)-c1c(cnn1CC(=O)O)CO2 > 76.9 µM
O=c1oc(-c2cccs2)nc2scc(-c3cccs3)c12 > 76.9 µM
COC(=O)c1cc(S(=O)(=O)NC2CCN(Cc3ccccc3)CC2)cn1C > 76.9 µM
O=C(Nc1ccon1)c1cnc2sccn2c1=O > 76.9 µM
Cc1ccccc1OCc1nc2ccccc2c(=O)n1/N=C/c1ccco1 > 76.9 µM
Cc1cc(C)nc(N(C#N)Cc2ccc(Br)cc2)n1 > 76.9 µM
CCNc1nc(NC#N)nc(SCC(=O)OCC)n1 > 76.9 µM
O/N=C1\CC/C(=N\O)c2nn(-c3ccc(Cl)cc3Cl)nc21 > 76.9 µM
COc1cccc(C2C(C#N)=C(N)Oc3cc(C)n(Cc4ccccn4)c(=O)c32)c1OC (configuration not stated) > 76.9 µM
COC(=O)C1C(=O)NC(SC)=C(C#N)C1c1ccccc1 (configuration not stated) > 76.9 µM
O=C(NCc1ccco1)c1ccc2c(c1)C(=O)c1ccccc1-2 > 76.9 µM
CCOC(=O)N1CCC(N2CCN(S(=O)(=O)CC)CC2)CC1 > 76.9 µM
COc1cc(CNC(=O)c2ccc(Cn3nc(C)c(Cl)c3C)o2)cc(OC)c1 > 76.9 µM
COc1ccc(S(=O)(=O)N2CCN(c3cc(-c4ccccc4)nc4ncnn34)CC2)cc1 > 76.9 µM
N#CCCN(Cc1cccnc1)C(=O)c1ccc(S(=O)(=O)N2CCOCC2)cc1 > 76.9 µM
CC1CCCCC1NC(=O)CSc1nnc(N)s1 (configuration not stated) > 76.9 µM
CSc1nsc(SC)c1NC(=O)OCC1CCCO1 (configuration not stated) > 76.9 µM
O=C(CC(Sc1ccccc1)c1cccs1)c1ccco1 (configuration not stated) > 76.9 µM
CCOC(=O)c1sc2nc(SCC#N)n(CC3CCCO3)c(=O)c2c1C (configuration not stated) > 76.9 µM
C/C(=C\C(=O)c1ccc(C)o1)Nc1ccc(C(=O)O)cc1C > 76.9 µM
CCC(OC(=O)c1cc2sccc2n1C)C(=O)NCC1CCCO1 (configuration not stated) > 76.9 µM
O=C(c1cccs1)N1CCN(S(=O)(=O)N2CCCCC2)CC1 > 76.9 µM
CC(C)OC(=O)CSc1nnc(-c2ccccn2)n1-c1ccccc1 > 76.9 µM
CCS(=O)(=O)c1nnnn1-c1ccccc1S(C)(=O)=O > 76.9 µM
COC(=O)c1ccc2c(=O)n(CCN3CCOCC3)c(SCC(=O)NC3CCCCC3)nc2c1 > 76.9 µM
CCCNC(=O)c1c(N)n(-c2ccc3c(c2)OCO3)c2nc3ccccc3nc12 > 76.9 µM
Oc1c(CN2CCCCC2)cc(Br)c2cccnc12 > 76.9 µM
CC(c1ccccc1)n1cc(C(=O)NCc2ccccn2)nn1 (configuration not stated) > 76.9 µM
O=C(NCC1CCCO1)C1CCN(S(=O)(=O)Cc2ccccc2)CC1 (configuration not stated) > 76.9 µM
O=C1CC(N2CCN(c3ccc(S(=O)(=O)N4CCCC4)cc3)CC2)C(=O)N1c1ccc(F)cc1 (configuration not stated) > 76.9 µM
CCOC(=O)CCC(NC(=O)c1ccc(NCN2C(=O)CCC2=O)cc1)C(=O)OCC (configuration not stated) > 76.9 µM
CCOc1ccccc1-c1nnc(SCC(=O)Nc2ccccc2)o1 > 76.9 µM
CC(=O)C1C(c2ccc(F)c(F)c2)NC(=O)NC1(O)C(F)(F)F (configuration not stated) > 76.9 µM
CCN(CC)c1nc(Nc2ccccc2)nc(Oc2ccc(=O)[nH]n2)n1 > 76.9 µM
CC1(C)CC2CC(C)(CN2c2ncnc3ccccc23)C1 (configuration not stated) > 76.9 µM
O=c1nc(NC2CCCC2)ccn1Cc1cccc(Br)c1 > 76.9 µM
COc1ccc(CNC(=O)C2CC(c3cccc(OC)c3)=NO2)cc1 (configuration not stated) > 76.9 µM
CCOC(=O)c1sc2ccc(S(=O)(=O)N3CCCCC3)cc2c1N > 76.9 µM
COc1ccccc1NC=C1C(=O)OC2(CCCCC2)OC1=O > 76.9 µM
CNC(=O)c1ccccc1NC(=O)c1cccc(S(=O)(=O)N2CCC(C)CC2)c1 > 76.9 µM
CCCCOP(=O)(c1ccc(N(C)C)cc1)C(O)c1ccncc1 (configuration not stated) > 76.9 µM
COc1cccc(OCC(=O)Nc2ccccc2C(N)=O)c1 > 76.9 µM
O=C(Cn1c(-c2ccccn2)nc2ccccc21)NCCN1CCOCC1 > 76.9 µM
COc1ccccc1OCC(=O)Nc1cccc(-c2nc3ccccc3o2)c1 > 76.9 µM
O=C(O)C1C2C=CC3(CN(Cc4ccncc4)C(=O)C13)O2 (configuration not stated) > 76.9 µM
O=c1ccnc(NCCc2ccccc2)[nH]1 > 76.9 µM
CCOc1ccccc1CNC(=O)C1CCC(=O)N1C(C)C (configuration not stated) > 76.9 µM
CCNc1nc(NC(C)C)nc(N(C#N)CCOc2ccc(Cl)cc2Cl)n1 > 76.9 µM
CCOc1ccc(OCc2ccc(C(=O)O)o2)cc1 > 76.9 µM
CC1(C)CC(=O)C(C=NC(CCC(N)=O)C(=O)O)=C(O)C1 (configuration not stated) > 76.9 µM
CSc1nc(C)c(Cl)c(C)c1C#N > 76.9 µM
COc1ccc(C)cc1-n1nnnc1SCC1CCCCO1 (configuration not stated) > 76.9 µM
CCC(C)C(NC(=O)OC(C)(C)C)C(=O)NCc1ccco1 (configuration not stated) > 76.9 µM
OC(Cn1cncn1)c1ccc(Cl)cc1Cl (configuration not stated) > 76.9 µM
CCOc1ccccc1NC(=O)CCc1ccc(C)o1 > 76.9 µM
CCCC(=O)Nc1c2c(nn1-c1ccc(OC)cc1)CS(=O)(=O)C2 > 76.9 µM
Cn1ncc2c(NCc3ccccc3)ncnc21 > 76.9 µM
Cc1ccc(Cn2ccc(NC(=O)c3noc4c3CCCCC4)n2)cc1 > 76.9 µM
Cc1cccc(-c2noc(CCCC(=O)Nc3cccnc3)n2)c1
CCOc1ccc(S(=O)(=O)NCc2csc(C)n2)cc1 > 76.9 µM
Cc1ccc2cc(CN(CC3CCCO3)C(=O)c3ccco3)c(=O)[nH]c2c1C (configuration not stated) > 76.9 µM
COc1cc(S(=O)(=O)N2CCOCC2)c(OC)c(S(=O)(=O)N2CCOCC2)c1 > 76.9 µM
COc1ccc(N2CCN(CC(=O)N3CCC(C)CC3)CC2)cc1 > 76.9 µM
CC(=O)c1coc2ccc(OCC(=O)O)cc12 > 76.9 µM
O=c1c2ccccc2nc2sc3ccccc3n12 > 76.9 µM
CCc1nc2ccccc2c(=O)n1CCCCn1c(CC)nc2ccccc2c1=O > 76.9 µM
Cc1ccc(CNC(=O)CN(C)S(=O)(=O)c2cccc3nsnc23)cc1 > 76.9 µM
CS(=O)(=O)N(CC(=O)NCC1CCCO1)c1ccc(F)c(Cl)c1 (configuration not stated) > 76.9 µM
CC(=O)Nc1cccc(NS(=O)(=O)Cc2ccc(Cl)cc2)c1 > 76.9 µM
Cc1ccc(C(=O)C(C)OC(=O)C2=COCCO2)cc1C (configuration not stated) > 76.9 µM
Cc1ccccc1S(=O)(=O)Cc1ccc(C(=O)NCCN2CCCCC2C)o1 (configuration not stated) > 76.9 µM
CCN(c1ccc2c(c1)OCO2)S(=O)(=O)c1cc(Br)cc2c1N(C(=O)C1CC1)CC2 > 76.9 µM
COc1cccc(N(CC(=O)Nc2cccc(N(C)S(C)(=O)=O)c2)S(C)(=O)=O)c1 > 76.9 µM
C=CCNC(=O)Cn1nc(-c2ccccc2)ccc1=O > 76.9 µM
CCOC(=O)CN1C(=O)C(O)=C(C(C)=O)C1c1ccccc1 (configuration not stated) > 76.9 µM
CCOc1ccc(NC(=O)CCS(=O)(=O)c2ccc3c(c2)CCCN3C(C)=O)cc1 > 76.9 µM
Cc1ccc(S(=O)(=O)Cn2nnnc2CN2CCOCC2)cc1 > 76.9 µM
COCCN(Cc1cc2cc3c(cc2n2nnnc12)OCO3)C(=O)c1ccccc1F > 76.9 µM
O=C(CSc1nnc(-c2ccccc2)o1)N1CCN(c2ccccc2)CC1 > 76.9 µM
O=C(CCCCn1c(=O)c2ccccc2n(Cc2ccc(Cl)cc2)c1=O)NCc1ccco1 > 76.9 µM
COc1ccc(OC)c(/C=N/c2oc(-c3ccco3)c(-c3ccco3)c2C#N)c1 > 76.9 µM
Cc1ccccc1Nc1nc(N)nc(CSCc2c(C)noc2C)n1 > 76.9 µM
Nc1nnc(SCCOc2ccc(Br)cc2)s1 > 76.9 µM
Cc1ccc(C)c(Cn2cnc3c(nnn3-c3ccc(F)cc3)c2=O)c1 > 76.9 µM
